For 58 molecules, IFI results are on record in ChEMBL document CHEMBL1157539, “Thousands of chemical starting points for antimalarial lead identification” (Nature, 2010).

In all, about 13,000 compounds were measured (“IFI”: median about 4, highest 2% from about 17 on). The list shows a part of the results.

The test is described as follows: GSK_TCMDC: Inhibition Frequency Index (IFI). The number of non-kinase HTS assays where a compound showed > 50 % inhibition, expressed as a percentage of the number of such assays in which the compound was tested (-0 is zero). It is filed as functional.
For `CCN(CC)CCCC(C)Nc1ccnc2cc(C#N)ccc12` (stereo not drawn), the IFI is -0%.

Turning to `Cc1cc(N[C@@H](Cc2ccccc2)C(=O)NCCOc2ccccc2)nc(NCCc2cccs2)n1`, the IFI worked out at 11.6%.

On to `CN1CCC(C(=O)N(Cc2ccc(-c3ccc(CNCCc4ccc(S(C)(=O)=O)cc4)cn3)cc2)C2CCN(Cc3ccccc3)CC2)CC1`, for which the IFI turned out to be 2.11%.

The molecule `CN(C)c1ccc(N2C(N)=NC(N)=NC23CCCC3)cc1` registered an IFI of 1.41%.

`COc1ccc(C(=O)N[C@@H](CC(C)C)C(=O)N[C@H](/C=N/NC(=O)c2ccccc2)CCc2ccccc2)cc1OCCN1CCOCC1` registered an IFI of 2.68%. As for `CC(C)CCNC(=O)C1Cc2c([nH]c3cc(Br)ccc23)C2(CCN(CCc3ccccc3)CC2)N1` (stereo not drawn), the figure is 2.9%; as for `CC(C)Oc1ccc(CCCON2C(=N)N=C(N)NC2(C)C)cc1`, 5.63%.

Turning to `CN1CCN(c2ccnc3ccc(NC(=O)Cc4ccc5ccccc5c4)cc23)CC1`, the IFI amounted to 0.74%. As for `CCc1cc(OC)c(C(=O)NC2CCN(C[C@H](O)c3ccnc4ccc(OC)cc34)CC2)cc1Br`, the figure is 0.75%. As for `O=C(/C=C/c1ccc(Cl)c(Cl)c1)NCCCCCCN1CCN(C(=O)Nc2cc(F)cc(F)c2)CC1`, the figure is 8%.

Consider `Cc1ccc(O)cc1Nc1ccnc2cc(-c3nccs3)ccc12`, for which the IFI worked out at 9.03%.

Molecule `CCNc1cc(C(=O)N[C@@H](Cc2ccccc2)[C@H](O)CNCc2cccc(OC)c2)c(OC)c(N2CCCCS2(=O)=O)c1` registered an IFI of 2.9%. For `COc1cc2ncnc(Nc3ccc(OCc4ccccc4)c(C(F)(F)F)c3)c2cc1OC`, the IFI is 1.6%. The result for `CCN1CCN(c2cc(C)c3cc(NC(=O)c4cc(OC)cc(OC)c4)ccc3n2)CC1` reads 4.03%; that for `O=C(Nc1cc(C(F)(F)F)ccc1-n1cncn1)C1(c2ccccc2)CC1`, 3.06%; that for `Nc1nc(N)c2c(ccc3nn(Cc4ccccc4)cc32)n1`, 2.88%. Molecule `COc1ccc(CCNCC(O)COc2nccc3c(S(=O)(=O)N4CCCNCC4)cccc23)cc1OC` (stereo not drawn) registered an IFI of 4%.

For the molecule `CCCNCc1ccc(-c2ccc(CN(Cc3cnc(C)cn3)C(=O)/C=C/c3ccccc3C)cc2)nc1`, the IFI came out at 1.52%. As for `CCn1c(Sc2ccc(C#N)c([N+](=O)[O-])c2)nnc1-c1cc(OC)cc(OC)c1`, the figure is 2.14%; as for `COc1ccc(C23Oc4cc(OC)cc(OC)c4C2(O)C2(CC3c3ccccc3)SCCCS2)cc1` (stereo not drawn), 8.57%; as for `O=C(NC1CCN(Cc2ccccc2)CC1)c1ccc(-c2nc3cc(Cl)c(Cl)cc3[nH]2)c(F)c1`, 0.74%. The result for `CCN(CCCN1CCCCC1)c1cc(C)nc(Nc2cccc3c2CCCC3)n1` reads 6.41%; that for `CCCN(Cc1nnc(-c2cccs2)o1)C(=O)C1COc2ccccc2O1` (stereo not drawn), 2.27%; that for `O=C(/C=C/c1ccc(Cl)c(Cl)c1)NCCCCCCN1CCN(C(=O)Nc2ccc(Cl)c(C(F)(F)F)c2)CC1`, 7.2%.

Turning to `CCC(CC)n1cc2c(ccc3nc(N)nc(N)c32)n1`, the IFI stood at 2.17%. The result for `COc1ccc2nc(-c3cc(-c4ccc(NC(=O)C(C)C)cc4)cnc3N)[nH]c2c1` reads 6.43%; that for `CN=C(Nc1c(Cl)cccc1Cl)N(C)C`, 0.76%; that for `O=C(NCCCCN1CCC(c2ccc3c(c2O)CCCC3)CC1)c1ccc(NC(=O)c2ccc(Cl)cc2)cc1`, 7.27%. As for `Cc1nc(-c2nc(N3CCOCC3)ncc2-c2ccsc2)sc1C`, the figure is 2.2%; as for `O=C(Nc1cccc(CCNCc2ccccc2)c1)Nc1cccc2ccccc12`, 5.63%. As for `CC1CN(Cc2ccc(C#N)cc2)CCN1c1ccc(NC(=O)c2cccs2)cc1` (stereo not drawn), the figure is 2.44%; as for `Cc1cccc2nc(-c3ccc(-c4ccc(CN5CCCCC5)cc4)s3)[nH]c12`, 4.23%; as for `NC(=O)c1cccc(C(=O)Nc2cccc(-c3cccc(-c4nc5cc(F)ccc5[nH]4)c3)c2)c1`, 3.45%. As for `O=[N+]([O-])c1ccc(Nc2nc(N/N=C/c3cccc(O)c3)nc(N3CCCC3)n2)cc1`, the IFI worked out at 3.5%. `COc1cc(C(=O)NC2CCN(Cc3ccccc3)CC2)ccc1-c1cc2cc(Cl)c(Cl)cc2[nH]1` returned an IFI of 3.57%.

As for `CS(=O)(=O)N1CC2(CCN(CCC(NC(=O)Nc3ccccc3)c3ccc(Cl)c(Cl)c3)CC2)c2ccccc21` (stereo not drawn), the IFI was determined as 4.08%. `CC(=O)Nc1nc(C(=O)Nc2ccc(-c3ccc(-c4nc5ccccc5[nH]4)cc3)cc2)cs1` showed an IFI of 7.76%. The result for `CC1(C)N=C(N)N=C(N)N1OCc1ccc2ccccc2c1` reads 2.17%; that for `NC1CCCN(Cc2cccc(-c3cccc(-c4nc5ccccc5[nH]4)c3)c2)C1` (stereo not drawn), 4.17%. The result for `NS(=O)(=O)c1ccc(Nc2nccc(-c3c(-c4cccc(NC(=O)c5c(F)cccc5F)c4)nn4ccccc34)n2)cc1` reads 7.96%; that for `c1ccc(CN2CCC(NCc3ccc(-c4cncc5ccccc45)cc3)CC2)cc1`, 9.52%; that for `Cc1cc(=NN=Cc2cccc(Cl)c2)c2ccc(F)cc2[nH]1`, 1.49%. The result for `O=C(/C=C/c1ccc(Cl)c(Cl)c1)NCCCCCN1CCC(NC(=O)Nc2ccc(C(F)(F)F)cc2)CC1` reads 10.6%; that for `C[C@@H](Oc1cc(-n2cnc3ccc(NC(=O)CCN4CCCCC4)cc32)sc1C(N)=O)c1ccccc1Cl`, 7.75%.

For `CN(C)c1ccc(CN2CCC(NC(=O)c3ccc(-c4cccc(Cl)c4)s3)CC2)cc1`, the IFI was determined as 17.9%.

Take `O=C(NCc1ccccc1)c1ccc(C(=O)NCC2CNCCO2)cc1` (stereo not drawn): the IFI is -0%.

With `O=C(/C=C/c1ccc(Cl)c(Cl)c1)NCCCCCN1CCCN(C(=O)Nc2cc(Cl)cc(Cl)c2)CC1`, the IFI amounted to 7.38%. As for `COc1ccc2nc(C)cc(NCc3ccc4ccccc4c3)c2c1`, the figure is 1.42%; as for `CCCC1N=C(N)N=C(N)N1c1cccc(C(F)(F)F)c1` (stereo not drawn), 0.77%; as for `O=C(Nc1ccc(-c2nc3ccccc3[nH]2)cc1)c1cncc(Br)c1`, 0.72%. The result for `Cc1cccc(-c2ccc(NC(=O)Nc3ccc4nccc(N5CCN(C)CC5)c4c3)cc2C)n1` reads 2.92%. As for `N=C(N)Nc1nc(-c2ccc(NC(=O)Nc3cccc(-c4csc(NC(=N)N)n4)c3)cc2)cs1`, the figure is 5.76%; as for `CCN(CC)c1nc(Nc2cc(C)ccc2C)nc(Nc2ccccc2O)n1`, 2.17%.

On to `CC(C)N(CCOc1ccc2c(c1)N(C(=O)Nc1ccc(Cl)c(Cl)c1)CC2)C(C)C`, for which the IFI was determined as 4.32%. The result for `N=C(N)NN=CC(=O)Nc1ccc(Cl)cc1` reads 3.01%. As for `CC(CON1C(N)=NC(N)=NC1(C)C)c1ccc(Cl)cc1Cl` (stereo not drawn), the figure is 5.04%; as for `Cc1cccc2nc(-c3ccc(-c4ccc(NC(=O)NCc5ccc(F)cc5)cc4)cc3)[nH]c12`, 6.67%; as for `CC(C)CN1C(=O)c2ccc(C(=O)Nc3nccs3)cc2C1=O`, 0.71%.
